Test results published in the CheMixHub viscosity set.
± gives the uncertainty stated by the source. Further values from the same series stand in other lists.

Test: xn = mol fraction of the nth substance listed

C1COCCO1 + O
Conditions | viscosity [mPa·s]
293.15 K, 101 kPa, x1 = 0.00206 | 1.028 ± 0.0063
293.15 K, 101 kPa, x1 = 0.00628 | 1.069 ± 0.0066
293.15 K, 101 kPa, x1 = 0.01516 | 1.155 ± 0.007
293.15 K, 101 kPa, x1 = 0.03482 | 1.326 ± 0.008
293.15 K, 101 kPa, x1 = 0.05303 | 1.482 ± 0.0088
293.15 K, 101 kPa, x1 = 0.07366 | 1.651 ± 0.0098
293.15 K, 101 kPa, x1 = 0.08413 | 1.737 ± 0.01
293.15 K, 101 kPa, x1 = 0.1114 | 1.924 ± 0.011
293.15 K, 101 kPa, x1 = 0.1433 | 2.083 ± 0.012
293.15 K, 101 kPa, x1 = 0.1726 | 2.174 ± 0.013
293.15 K, 101 kPa, x1 = 0.2065 | 2.228 ± 0.013
293.15 K, 101 kPa, x1 = 0.2501 | 2.233 ± 0.013
293.15 K, 101 kPa, x1 = 0.3029 | 2.202 ± 0.013
293.15 K, 101 kPa, x1 = 0.356 | 2.126 ± 0.013
293.15 K, 101 kPa, x1 = 0.4203 | 1.996 ± 0.013
293.15 K, 101 kPa, x1 = 0.4996 | 1.843 ± 0.012
293.15 K, 101 kPa, x1 = 0.5367 | 1.776 ± 0.012
293.15 K, 101 kPa, x1 = 0.5999 | 1.672 ± 0.011
293.15 K, 101 kPa, x1 = 0.6479 | 1.6 ± 0.011
293.15 K, 101 kPa, x1 = 0.7309 | 1.501 ± 0.01
293.15 K, 101 kPa, x1 = 0.7621 | 1.469 ± 0.01
293.15 K, 101 kPa, x1 = 0.7953 | 1.436 ± 0.01
293.15 K, 101 kPa, x1 = 0.8686 | 1.38 ± 0.01
293.15 K, 101 kPa, x1 = 0.9092 | 1.353 ± 0.01
293.15 K, 101 kPa, x1 = 0.976 | 1.317 ± 0.01
293.15 K, 101 kPa, x2 = 0.0145 | 1.313 ± 0.01
295.1 K, 101.32 kPa, x1 = 0.02221 | 1.163 ± 0.0071
295.1 K, 101.32 kPa, x1 = 0.04863 | 1.393 ± 0.0083
295.1 K, 101.32 kPa, x1 = 0.08057 | 1.639 ± 0.0097
295.1 K, 101.32 kPa, x1 = 0.12 | 1.861 ± 0.011
295.1 K, 101.32 kPa, x1 = 0.1698 | 2.072 ± 0.012
295.1 K, 101.32 kPa, x1 = 0.2347 | 2.168 ± 0.013
295.1 K, 101.32 kPa, x1 = 0.2949 | 2.144 ± 0.013
295.1 K, 101.32 kPa, x1 = 0.323 | 2.119 ± 0.013
295.1 K, 101.32 kPa, x1 = 0.3802 | 2.048 ± 0.012
295.1 K, 101.32 kPa, x1 = 0.4499 | 1.889 ± 0.012
295.1 K, 101.32 kPa, x1 = 0.5367 | 1.734 ± 0.011
295.1 K, 101.32 kPa, x1 = 0.6479 | 1.548 ± 0.01
295.1 K, 101.32 kPa, x1 = 0.7953 | 1.396 ± 0.01
295.1 K, 101.32 kPa, x1 = 0.8686 | 1.347 ± 0.0099
295.1 K, 101.32 kPa, x1 = 0.9529 | 1.282 ± 0.0098
298.15 K, 101 kPa, x1 = 0.00163 | 0.8989 ± 0.0062
298.15 K, 101 kPa, x1 = 0.00205 | 0.9073 ± 0.0062
298.15 K, 101 kPa, x1 = 0.00206 | 0.9128 ± 0.0057
298.15 K, 101 kPa, x1 = 0.0022 | 0.9086 ± 0.0062
298.15 K, 101 kPa, x1 = 0.00306 | 0.917 ± 0.0063
298.15 K, 101 kPa, x1 = 0.00415 | 0.9254 ± 0.0063
298.15 K, 101 kPa, x1 = 0.00523 | 0.9354 ± 0.0064
298.15 K, 101 kPa, x1 = 0.00628 | 0.9453 ± 0.0059
298.15 K, 101 kPa, x1 = 0.0063 | 0.9446 ± 0.0065
298.15 K, 101 kPa, x1 = 0.00844 | 0.9613 ± 0.0066
298.15 K, 101 kPa, x1 = 0.01064 | 0.9805 ± 0.0067
298.15 K, 101 kPa, x1 = 0.01287 | 0.9996 ± 0.0069
298.15 K, 101 kPa, x1 = 0.01516 | 1.017 ± 0.0063
298.15 K, 101 kPa, x1 = 0.01748 | 1.039 ± 0.0072
298.15 K, 101 kPa, x1 = 0.01987 | 1.062 ± 0.0073
298.15 K, 101 kPa, x1 = 0.0226 | 1.083 ± 0.0075
298.15 K, 101 kPa, x1 = 0.02719 | 1.122 ± 0.0078
298.15 K, 101 kPa, x1 = 0.03233 | 1.157 ± 0.008
298.15 K, 101 kPa, x1 = 0.03482 | 1.164 ± 0.0071
298.15 K, 101 kPa, x1 = 0.03751 | 1.197 ± 0.0083
298.15 K, 101 kPa, x1 = 0.04289 | 1.242 ± 0.0087
298.15 K, 101 kPa, x1 = 0.04885 | 1.282 ± 0.009
298.15 K, 101 kPa, x1 = 0.05303 | 1.299 ± 0.0078
298.15 K, 101 kPa, x1 = 0.06378 | 1.392 ± 0.01
298.15 K, 101 kPa, x1 = 0.07366 | 1.448 ± 0.0087
298.15 K, 101 kPa, x1 = 0.08066 | 1.499 ± 0.011
298.15 K, 101 kPa, x1 = 0.08413 | 1.522 ± 0.0091
298.15 K, 101 kPa, x1 = 0.09926 | 1.61 ± 0.012
298.15 K, 101 kPa, x1 = 0.1114 | 1.681 ± 0.01
298.15 K, 101 kPa, x1 = 0.1214 | 1.728 ± 0.013
298.15 K, 101 kPa, x1 = 0.1433 | 1.817 ± 0.011
298.15 K, 101 kPa, x1 = 0.1703 | 1.913 ± 0.016
298.15 K, 101 kPa, x1 = 0.1726 | 1.892 ± 0.011
298.15 K, 101 kPa, x1 = 0.2 | 1.923 ± 0.016
298.15 K, 101 kPa, x1 = 0.2065 | 1.944 ± 0.011
298.15 K, 101 kPa, x1 = 0.2344 | 1.991 ± 0.019
298.15 K, 101 kPa, x1 = 0.2501 | 1.953 ± 0.012
298.15 K, 101 kPa, x1 = 0.3029 | 1.934 ± 0.012
298.15 K, 101 kPa, x1 = 0.3224 | 1.926 ± 0.021
298.15 K, 101 kPa, x1 = 0.356 | 1.893 ± 0.012
298.15 K, 101 kPa, x1 = 0.4 | 1.784 ± 0.016
298.15 K, 101 kPa, x1 = 0.4063 | 1.797 ± 0.023
298.15 K, 101 kPa, x1 = 0.4203 | 1.8 ± 0.011
298.15 K, 101 kPa, x1 = 0.4764 | 1.669 ± 0.023
298.15 K, 101 kPa, x1 = 0.4964 | 1.618 ± 0.023
298.15 K, 101 kPa, x1 = 0.4996 | 1.655 ± 0.011
298.15 K, 101 kPa, x1 = 0.5367 | 1.597 ± 0.01
298.15 K, 101 kPa, x1 = 0.5999 | 1.51 ± 0.01
298.15 K, 101 kPa, x1 = 0.6 | 1.453 ± 0.014
298.15 K, 101 kPa, x1 = 0.6421 | 1.412 ± 0.025
298.15 K, 101 kPa, x1 = 0.6479 | 1.451 ± 0.0099
298.15 K, 101 kPa, x1 = 0.7309 | 1.362 ± 0.0096
298.15 K, 101 kPa, x1 = 0.7621 | 1.333 ± 0.0095
298.15 K, 101 kPa, x1 = 0.7921 | 1.253 ± 0.026
298.15 K, 101 kPa, x1 = 0.7953 | 1.305 ± 0.0094
298.15 K, 101 kPa, x1 = 0.8 | 1.262 ± 0.014
298.15 K, 101 kPa, x1 = 0.8686 | 1.25 ± 0.0093
298.15 K, 101 kPa, x1 = 0.897 | 1.192 ± 0.028
298.15 K, 101 kPa, x1 = 0.9092 | 1.224 ± 0.0093
298.15 K, 101 kPa, x1 = 0.9502 | 1.18 ± 0.029
298.15 K, 101 kPa, x1 = 0.976 | 1.187 ± 0.0092
298.15 K, 101 kPa, x2 = 0.003 | 1.18 ± 0.03
298.15 K, 101 kPa, x2 = 0.0145 | 1.182 ± 0.0092
298.15 K, 101 kPa, x2 = 0.135 | 1.21 ± 0.03
